Patent US20260209383A1, “SITE-[…] […] ANTIBODY DRUG CONJUGATES” (SEAGEN INC., priority 2022, published 2026)

What was measured:
HPAFII cells = experiment: In vitro cytotoxicity assay (CellTiter-Glo), HPAFII; assay type: cell-based
Experimental: (§1) In vitro cytotoxicity assay: The cytotoxic effect of an EC4-based ADC was measured by a cell proliferation assay employing the protocol in the Promega Corp. Technical Bulletin TB288; and Mendoza et a1., 2002, Cancer Res. 62:5485-5488), the methods of which are specifically incorporated by reference herein. Briefly, an aliquot of 40 μl of cell culture containing about 400 cells in medium was deposited in each well of a 384-well, opaque-walled plate. A 10 μL aliquot of free cytotoxic agent or ADC was added to the experimental wells and incubated for 96 hr and then incubated at room temperature for approximately 30 mins whereupon a volume of CellTiter-Glo™ reagent equal to the volume of cell culture medium present in each well was added. The contents were mixed for 2 mins on an orbital shaker to induce cell lysis and the plate was incubated at room temperature for 10 mins to stabilize the luminescence signal for recordation.
(§2) Anti-ITGB6 ADCs were tested for potency. The antibodies were engineered with the cysteine pairs disclosed above in the previous Examples. The efficacy of anti-ITGB6 EC4 ADCs were also tested against conventional anti-ITGB6 ADCs. The cells were treated with conventional or EC4 ADCs, then the remaining cells were counted to assess the cytotoxic effects of each EC4 variant compared to conventional ADCs. […]

BxPC-3 cells = experiment: In vitro cytotoxicity assay (CellTiter-Glo), BxPC-3; assay type: cell-based; conditions: BXPC3; 96 hr
Experimental: as §1, §2

B1: h2A2 S400C S114C-mc-vc-MMAE(4): anti-ITGB6 antibody h2A2 with engineered cysteines S400C and S114C, conjugated with mc-vc-MMAE, DAR about 4 (conjugate)
heavy: QFQLVQSGAEVKKPGASVKVSCKASGYSFTDYNVNWVRQAPGQGLEWIGVINPKYGTTRYNQKFKGRATLTVDKSTSTAYMELSSLRSEDTAVYYCTRGLNAWDYWGQGTLVTVSS[not shown - human IgG1 constant region with S400C (EU numbers)]
light: DIQMTQSPSSLSASVGDRVTITCGASENIYGALNWYQQKPGKAPKLLIYGATNLEDGVPSRFSGSGSGRDYTFTISSLQPEDIATYYCQNVLTTPYTFGQGTKLEIKRTVAAPCVFIFPPSDEQLKSGTASVVCLLNNFYPREAKVQWKVDNALQSGNSQESVTEQDSKDSTYSLSSTLTLSKADYEKHKVYACEVTHQGLSSPVTKSFNRGEC
% viability at top concentration (HPAFII cells): 19% | x50 (HPAFII cells; 96 hr): 360 ng/mL | x50 (BxPC-3 cells): 236 ng/mL
